Data on five molecules can be found in patent US20250270341A1 (Alector, published 2025).

T1: Cyno CD98hc ECD Avi-His (cynomolgus macaque, UniProt P08195 105-529 (human entry))
T1 construct: biotinylated on the Avi tag where captured on streptavidin; also called Cyno CD98-AVI-His; Cyno CD98hc-AVI-His
T1 chain: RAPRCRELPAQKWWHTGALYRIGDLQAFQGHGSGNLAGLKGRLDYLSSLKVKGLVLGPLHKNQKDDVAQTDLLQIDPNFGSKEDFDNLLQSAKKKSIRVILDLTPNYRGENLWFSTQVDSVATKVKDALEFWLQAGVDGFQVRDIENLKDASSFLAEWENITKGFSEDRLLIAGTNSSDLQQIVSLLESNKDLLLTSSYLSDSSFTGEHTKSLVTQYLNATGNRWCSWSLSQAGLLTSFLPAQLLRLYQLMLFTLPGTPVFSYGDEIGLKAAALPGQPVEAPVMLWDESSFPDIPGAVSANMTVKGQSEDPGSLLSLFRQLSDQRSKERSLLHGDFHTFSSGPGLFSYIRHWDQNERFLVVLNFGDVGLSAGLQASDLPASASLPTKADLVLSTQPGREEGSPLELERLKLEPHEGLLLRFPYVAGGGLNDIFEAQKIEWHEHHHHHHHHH

T2: huCD98hc ECD Avi-His (human, UniProt P08195 105-529)
T2 construct: biotinylated on the Avi tag where captured on streptavidin; also called Human CD98-AVI-His; Human CD98hc-AVI-His
T2 sequence: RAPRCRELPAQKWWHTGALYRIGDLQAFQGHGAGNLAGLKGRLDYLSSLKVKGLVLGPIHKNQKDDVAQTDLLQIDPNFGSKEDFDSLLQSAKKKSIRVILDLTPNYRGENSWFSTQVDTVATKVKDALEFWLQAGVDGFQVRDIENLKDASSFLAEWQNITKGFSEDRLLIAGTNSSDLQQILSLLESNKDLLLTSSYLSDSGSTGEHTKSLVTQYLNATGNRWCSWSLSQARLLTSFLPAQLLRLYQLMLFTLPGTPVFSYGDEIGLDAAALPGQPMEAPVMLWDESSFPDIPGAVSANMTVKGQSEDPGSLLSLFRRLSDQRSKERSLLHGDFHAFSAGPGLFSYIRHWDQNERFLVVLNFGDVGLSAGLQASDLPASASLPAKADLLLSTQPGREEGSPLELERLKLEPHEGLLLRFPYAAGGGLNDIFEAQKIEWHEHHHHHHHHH

T3: human CD98hc endogenously expressed on HCMEC/D3 cells (human)
T3 construct: human brain endothelial cell line
T3 chain: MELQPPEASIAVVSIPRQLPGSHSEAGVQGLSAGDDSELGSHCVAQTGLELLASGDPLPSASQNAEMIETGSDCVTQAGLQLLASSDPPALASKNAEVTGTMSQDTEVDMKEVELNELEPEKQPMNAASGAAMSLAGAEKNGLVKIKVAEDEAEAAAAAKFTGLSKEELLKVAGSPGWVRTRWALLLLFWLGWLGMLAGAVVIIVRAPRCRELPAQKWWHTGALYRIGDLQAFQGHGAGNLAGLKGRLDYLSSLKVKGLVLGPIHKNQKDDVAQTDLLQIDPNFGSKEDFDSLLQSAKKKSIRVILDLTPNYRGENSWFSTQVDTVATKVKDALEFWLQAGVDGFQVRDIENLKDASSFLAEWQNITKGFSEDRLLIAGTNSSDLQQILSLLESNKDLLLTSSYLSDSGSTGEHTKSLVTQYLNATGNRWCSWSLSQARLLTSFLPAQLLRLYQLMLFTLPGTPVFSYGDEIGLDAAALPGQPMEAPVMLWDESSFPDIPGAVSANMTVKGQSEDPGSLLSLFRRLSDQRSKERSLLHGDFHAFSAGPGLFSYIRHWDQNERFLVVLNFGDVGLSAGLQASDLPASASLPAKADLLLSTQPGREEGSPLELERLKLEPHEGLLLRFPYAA

B1: CD98hc.04.022 (2+1 bispecific antibody) (bispecific antibody)
heavy 1: EVRLLESGGGLVQPGGSLRLSCAASGFTFSNYAMGWVRQAPGKGLEWVSAISGSGGSTYYADSVKGRFTTSRDDSKNALYLQMNSLRAEDTAVYYCARGGPGWYAADVWGQGTTVTVSSASTKGPSVFPLAPSSKSTSGGTAALGCLVKDYFPEPVTVSWNSGALTSGVHTFPAVLQSSGLYSLSSVVTVPSSSLGTQTYICNVNHKPSNTKVDKKV[here human IgG1 Fc with changes without letters]GGGGSGGGGSGGGGSEVQLQQSGAELVKPGASVKLSCTASGFNIKDTFMHWMKQRPEQGLEWIGRIDPANANTRYDPKFQGKATITTDTSSNTAYLQLSSLTSEDTAVYYCARDVYYDVWGAGTTVTVSSGGSEGKSSGSGSESKSTGGSDILMTQSPSSMSVSLGDTVTITCHASQGISSNIGWLQQKPGRSFKGLIYHGSNLEDGVPSRFTGSGSGTDYSLTISGLESEDFADYYCVQYAQFPRTFGGGTKLEIQ
heavy 2: EVRLLESGGGLVQPGGSLRLSCAASGFTFSNYAMGWVRQAPGKGLEWVSAISGSGGSTYYADSVKGRFTTSRDDSKNALYLQMNSLRAEDTAVYYCARGGPGWYAADVWGQGTTVTVSS[here human IgG1 constant region with changes without letters]
light: DIQMTQSPSSLSASVGDRVTITCRASQSISSYLNWYQQKPGKAPKLLIYAASSLQSGVPSRFSGSGSGTDFTLTISSLQPEDFATYYCQQADLPAFAFGGGTKVEIKRTVAAPSVFIFPPSDEQLKSGTASVVCLLNNFYPREAKVQWKVDNALQSGNSQESVTEQDSKDSTYSLSSTLTLSKADYEKHKVYACEVTHQGLSSPVTKSFNRGEC
B2: CD98hc.04.045 (2+1 bispecific antibody) (bispecific antibody)
heavy 1: EVRLLESGGGLVQPGGSLRLSCAASGFTFSNYAMGWVRQAPGKGLEWVSAISGSGGSTYYADSVKGRFTTSRDDSKNALYLQMNSLRAEDTAVYYCARGGPGWYAADVWGQGTTVTVSSASTKGPSVFPLAPSSKSTSGGTAALGCLVKDYFPEPVTVSWNSGALTSGVHTFPAVLQSSGLYSLSSVVTVPSSSLGTQTYICNVNHKPSNTKVDKKV[here human IgG1 Fc with changes without letters]GGGGSGGGGSGGGGSQIQLVQSGPELKKPGETVKISCKASGYSITNFGMNWVKQAPGKGLKWMGWVNTYTGEPTYADDFKGRFAFSLETSASTASLQINNLKNEDTATYFCTRSVITYTMDYWGQGTSVTVSSGGSEGKSSGSGSESKSTGGSDIQLTQSPSSLSASLGERVSLTCRASQEISGYLSWLQQKPDGTIKRLIYAASTLDSGVPKRFSGSRSGSDYSLTISSLESEDFADYYCLQYASYPRTFGGGTKVEIK
heavy 2: EVRLLESGGGLVQPGGSLRLSCAASGFTFSNYAMGWVRQAPGKGLEWVSAISGSGGSTYYADSVKGRFTTSRDDSKNALYLQMNSLRAEDTAVYYCARGGPGWYAADVWGQGTTVTVSS[here human IgG1 constant region with changes without letters]
light: B1 light
B3: CD98hc.04.046 (2+1 bispecific antibody) (bispecific antibody)
heavy 1: EVRLLESGGGLVQPGGSLRLSCAASGFTFSNYAMGWVRQAPGKGLEWVSAISGSGGSTYYADSVKGRFTTSRDDSKNALYLQMNSLRAEDTAVYYCARGGPGWYAADVWGQGTTVTVSSASTKGPSVFPLAPSSKSTSGGTAALGCLVKDYFPEPVTVSWNSGALTSGVHTFPAVLQSSGLYSLSSVVTVPSSSLGTQTYICNVNHKPSNTKVDKKV[here human IgG1 Fc with changes without letters]GGGGSGGGGSGGGGSQIQLVQSGPVLKKPGETVKISCKASGYTFTNFGMNWVKQAPGKGLKWMGWIDTYTREPTYVDDFKGRFAFSLETSVTTAYLQINDLKNEDSATYFCARGESHWYFDVWGAGTTVTVSSGGSEGKSSGSGSESKSTGGSQIVLTQSPAIMSASLGERVTMTCIVSSSVSSSYLYWYQQKPGSSPKLWIYSTSILASGVPGRFSGSGSGTSYSLTISSMEAEDAATYYCHQYHRSPPTFGGGTKLEIK
heavy 2: EVRLLESGGGLVQPGGSLRLSCAASGFTFSNYAMGWVRQAPGKGLEWVSAISGSGGSTYYADSVKGRFTTSRDDSKNALYLQMNSLRAEDTAVYYCARGGPGWYAADVWGQGTTVTVSS[here human IgG1 constant region with changes without letters]
light: B1 light
B4: CD98hc.04.062 (2+1 bispecific antibody) (bispecific antibody)
heavy 1: EVRLLESGGGLVQPGGSLRLSCAASGFTFSNYAMGWVRQAPGKGLEWVSAISGSGGSTYYADSVKGRFTTSRDDSKNALYLQMNSLRAEDTAVYYCARGGPGWYAADVWGQGTTVTVSSASTKGPSVFPLAPSSKSTSGGTAALGCLVKDYFPEPVTVSWNSGALTSGVHTFPAVLQSSGLYSLSSVVTVPSSSLGTQTYICNVNHKPSNTKVDKKV[here human IgG1 Fc with changes without letters]GGGGSGGGGSGGGGSEVQLVESGGDLVKPGGSLKLSCTASRFAFSTYDMSWVRQTPEKRLEWVAYISSGGGSTYFPDTVKGRFTISRDNAKNTLYLQMSSLKSEDTAMYYCARQDGHYPWFPYWGQGTLVTVSAGGSEGKSSGSGSESKSTGGSDIVMSQSPSSLAVSVGEKVTMSCKSSQSLLYSGNQKTYLAWYQQKPGQSPKPLIYWASTRESGIPDRFTGSGSGTDFTLTISSVKAEDLAVYYCQQYYSYPPTFGAGTKLELK
heavy 2: EVRLLESGGGLVQPGGSLRLSCAASGFTFSNYAMGWVRQAPGKGLEWVSAISGSGGSTYYADSVKGRFTTSRDDSKNALYLQMNSLRAEDTAVYYCARGGPGWYAADVWGQGTTVTVSS[here human IgG1 constant region with changes without letters]
light: B1 light
B5: CD98hc.04.054 (2+1 bispecific antibody) (bispecific antibody)
heavy 1: EVRLLESGGGLVQPGGSLRLSCAASGFTFSNYAMGWVRQAPGKGLEWVSAISGSGGSTYYADSVKGRFTTSRDDSKNALYLQMNSLRAEDTAVYYCARGGPGWYAADVWGQGTTVTVSSASTKGPSVFPLAPSSKSTSGGTAALGCLVKDYFPEPVTVSWNSGALTSGVHTFPAVLQSSGLYSLSSVVTVPSSSLGTQTYICNVNHKPSNTKVDKKV[here human IgG1 Fc with changes without letters]GGGGSGGGGSGGGGSQVQLQQSAAELARPGASVKMSCETSGYTFTRYTMNWVKQRPGQGLDWIGYINPSSGYAEYNQKFRGKTTLTADKSSSTAYIQLNSLTSEDSAVYYCVRYDGNYVYWGQGTTLTVSSGGSEGKSSGSGSESKSTGGSDIVMTQSQKFMSTSFGDRVDITCKASQNVGSAVAWYQQKPGQSPKLLIYSASNRYTGVPDRFTGSGSGTDFTLTINNMQSADLADYFCQQYNFYPLTFGAGTKLDLK
heavy 2: EVRLLESGGGLVQPGGSLRLSCAASGFTFSNYAMGWVRQAPGKGLEWVSAISGSGGSTYYADSVKGRFTTSRDDSKNALYLQMNSLRAEDTAVYYCARGGPGWYAADVWGQGTTVTVSS[here human IgG1 constant region with changes without letters]
light: B1 light

In one experiment the target is T1, Cyno CD98hc ECD Avi-His. Put plainly: SPR, Carterra LSA, antibody immobilized.
Turning to B1, the Kd worked out at 0.038 µM. This lies in the double-digit nanomolar range.
On the same count and under the same terms, the value for B2 was 0.055 µM; that for B3 was 0.039 µM.
The same measure, in the same setting: next, B4: 0.049 µM; B5: 0.0053 µM.

The target in a further experiment is T2, huCD98hc ECD Avi-His. Put plainly: SPR, Carterra LSA, antibody immobilized.
Molecule B1 registered a dissociation constant Kd of 0.022 µM. That is a double-digit nanomolar value.
B2 returned a Kd of 0.081 µM. This Kd is about 3.7-fold higher than that of the molecule before.
Still for that read-out and setting: next, B3: 0.07 µM; B4: 0.023 µM; B5: 0.016 µM.

The next experiment addresses T3, human CD98hc endogenously expressed on …. Put plainly: FACS, 5 ug/ml.
With B1, the “MFI fold-change relative to isotype hIgG1” value is 17.9.
B2: the “MFI fold-change relative to isotype hIgG1” value was 1.5.
For the molecule B3, the “MFI fold-change relative to isotype hIgG1” value stood at 5.6.
Still for that read-out and setting: the value for B4 was 136.
Same read-out and setting: the value for B5 was 115.
